The record followed here is publication PMC10668032.

The list shows a part of the results. At the low end of the ranking, values are background and their order means little.

For the experiment, the target named is SIX1-Q177R homeodomain (UniProt Q15475). Briefly: universal protein binding microarray. The settings on record: Universal all-10-mer PBM (8x60K, AMADID 030236), 300 nM GST-tagged protein, Alexa Fluor 488 anti-GST; buffer, salt, pH and temperature not stated; high values mean tight binding; most listed sequences are background and not binding sites; double strand, one strand shown.
With CGTGCGAG, the binding signal is 0.0597 E-score.

In the case of ATAACCGA, the binding signal was -0.184 E-score.

Turning to GGCAAATA, the binding signal is -0.0796 E-score.

Consider CTGGAATC, for which the binding signal is 0.0456 E-score.

With ATAGGACG, the binding signal was -0.118 E-score.

In the case of AACTCACG, the binding signal is -0.31 E-score.

Take AATCACTG: the binding signal is -0.036 E-score.

Consider CGTGATCC, for which the binding signal was 0.195 E-score.

Regarding TCAAGGGA, the binding signal was -0.087 E-score.

For the sequence CCATCGTC, the binding signal was -0.239 E-score.

As for CAATCTGC, the binding signal was -0.158 E-score.

As to AGTCTAAA, the binding signal is -0.0748 E-score.

With AGGGTAAC, the binding signal worked out at 0.176 E-score.

As to TACTAGCA, the binding signal was -0.0346 E-score.

Turning to ATTTCCGA, the binding signal is -0.218 E-score.

For the sequence TCTGGTAA, the binding signal was 0.0759 E-score.

For AGAGACAA, the binding signal is -0.251 E-score.

Regarding ATGCTCAA, the binding signal is -0.251 E-score.

For CAGATAAA, the binding signal was -0.0842 E-score.

As for GGCTACCC, the binding signal was found to be 0.0413 E-score.

In the case of CTGTTAGC, the binding signal was -0.201 E-score.

Consider CCAGCGCC, for which the binding signal is -0.222 E-score.

As for ATTGAACC, the binding signal turned out to be 0.0239 E-score.

Turning to ACAATACC, the binding signal was found to be 0.0413 E-score.

Turning to ACAGCCCC, the binding signal is -0.0608 E-score.

As to GGTTAAAC, the binding signal was 0.183 E-score.

On to AGACTCCA, for which the binding signal was found to be 0.0586 E-score.

Consider AGCTGATG, for which the binding signal was -0.0132 E-score.

As to ACTCGTGA, the binding signal is -0.0304 E-score.

For TATGTGCA, the binding signal is -0.121 E-score.

For the sequence AGTGTCGG, the binding signal was determined as 0.421 E-score.

For CAGGTCGC, the binding signal was -0.0369 E-score.

ATAATATC: the binding signal was -0.192 E-score.

Take AGTCTCAT: the binding signal is -0.0975 E-score.

On to AGCGGATG, for which the binding signal came to 0.00573 E-score.

With AAAAGTTG, the binding signal is -0.182 E-score.

In the case of AGTTACCC, the binding signal was determined as 0.146 E-score.

For AGGGATTG, the binding signal was -0.109 E-score.

As to TGGCGCAA, the binding signal is -0.101 E-score.

For ATTGAACG, the binding signal is -0.117 E-score.

Take TACTAGAA: the binding signal was -0.0104 E-score.

Regarding TAAGACAA, the binding signal was -0.0768 E-score.

On to GCATGAAA, for which the binding signal was -0.148 E-score.

For the sequence GGAGCCAC, the binding signal was -0.0346 E-score.

For CGCGGCAA, the binding signal was -0.079 E-score.

GCTCCTAC: the binding signal was 0.0432 E-score.

For TGCATCAA, the binding signal was -0.221 E-score.

Consider CCTGTTGA, for which the binding signal was found to be 0.0114 E-score.

As for CTAGATAG, the binding signal is -0.0228 E-score.

For the sequence CCAGTTGA, the binding signal was 0.0417 E-score.

Regarding ACAGGCCT, the binding signal is -0.213 E-score.

With CCGATAGA, the binding signal was -0.0393 E-score.

Turning to CAACCGAC, the binding signal came out at 0.00271 E-score.

For AACAGCCA, the binding signal was -0.0975 E-score.

Regarding AATCCCTA, the binding signal is -0.034 E-score.

AAGAAACT: the binding signal was -0.222 E-score.

As for AGACAGCT, the binding signal is -0.31 E-score.

Take CCTGTCAA: the binding signal came to 0.00171 E-score.

As for GCCTGGAC, the binding signal stood at 0.0343 E-score.

In the case of GGTCGGAA, the binding signal worked out at 0.17 E-score.

Take AAAGGGTC: the binding signal came to 0.136 E-score.

Turning to CAATGGCG, the binding signal worked out at 0.00487 E-score.

For the sequence AAGGATGT, the binding signal was -0.119 E-score.

With TACATCAA, the binding signal was found to be 0.0509 E-score.

With CTACCCAA, the binding signal was found to be 0.00863 E-score.

CGGTCCAG: the binding signal was -0.0927 E-score.

As for AAGACATT, the binding signal is -0.231 E-score.

Regarding CCTTCTAG, the binding signal was -0.094 E-score.

In the case of CAGCCCTA, the binding signal was found to be 0.03 E-score.

Consider CGATTAGC, for which the binding signal was -0.192 E-score.

In the case of ATGCGCAC, the binding signal worked out at 0.0353 E-score.

Regarding AAGGTCAT, the binding signal was -0.0714 E-score.

In the case of CGTGTAAA, the binding signal turned out to be 0.435 E-score.

ACCATGTA: the binding signal is -0.0407 E-score.

With GGGTACCA, the binding signal worked out at 0.129 E-score.

In the case of GATTTTGA, the binding signal is -0.0961 E-score.

As to GCCGACGA, the binding signal was -0.127 E-score.

AATATTGT: the binding signal is -0.244 E-score.

With AGCACAGC, the binding signal is -0.118 E-score.

CAAATACA: the binding signal was 0.0732 E-score.

Regarding CCTCATAC, the binding signal stood at 0.0375 E-score.

Consider CAGCTGCG, for which the binding signal is -0.165 E-score.

ATCTTTTA: the binding signal is -0.194 E-score.

With ATGACCTA, the binding signal was -0.16 E-score.

On to CAGAAAAC, for which the binding signal was -0.0387 E-score.

In the case of CCATTCCA, the binding signal is 0.0775 E-score.

With AGACGGTC, the binding signal is -0.101 E-score.

On to ACGCTTGG, for which the binding signal is 0.00936 E-score.

Consider GCGGTTCC, for which the binding signal was -0.0635 E-score.

AGGAAGAC: the binding signal is -0.0588 E-score.

As for ATTAAGTC, the binding signal is -0.0372 E-score.

In the case of GAGGCATA, the binding signal is -0.142 E-score.

Turning to ACAGCGTG, the binding signal was determined as 0.0831 E-score.

As for GAAGCCTC, the binding signal is -0.0815 E-score.

In the case of ACCACCAT, the binding signal worked out at 0.0308 E-score.

With ATTGATAC, the binding signal came to 0.196 E-score.

Regarding ATGTGAAT, the binding signal is -0.166 E-score.

For GGGCGTCA, the binding signal came out at 0.137 E-score.

For the sequence GCTATTGA, the binding signal was -0.014 E-score.

In the case of ATTCGCGC, the binding signal is -0.137 E-score.

In the case of AGAATCAT, the binding signal is -0.209 E-score.

As for AGTCATGC, the binding signal is -0.0902 E-score.

Take CTATGGTA: the binding signal turned out to be 0.0827 E-score.

As to GTCGGGTA, the binding signal came out at 0.221 E-score.

For the sequence GATTTGGC, the binding signal is -0.179 E-score.

ATTCACTC: the binding signal amounted to 0.151 E-score.

Consider GATACTAC, for which the binding signal came to 0.183 E-score.

Take AGTCTTGG: the binding signal was -0.0401 E-score.

Take AGGGGGTG: the binding signal turned out to be 0.396 E-score.

Regarding CCGTCCCA, the binding signal is -0.0798 E-score.

ACAGAGGT: the binding signal was 0.156 E-score.

For ATAAACAA, the binding signal was -0.2 E-score.

With CCTGACCC, the binding signal worked out at 0.159 E-score.

Take TTAAAAAA: the binding signal was -0.262 E-score.

CTTGGTAC: the binding signal is -0.051 E-score.

As to AATATCCA, the binding signal was -0.088 E-score.

On to CCATGTCA, for which the binding signal was -0.0217 E-score.

Regarding CATTCCGC, the binding signal is -0.0898 E-score.

Consider ATTAGTCA, for which the binding signal was -0.147 E-score.

ATGACGAG: the binding signal was -0.094 E-score.

With ATACAATC, the binding signal was -0.173 E-score.

CGGGTCGC: the binding signal turned out to be 0.189 E-score.

Regarding GAGGTGAC, the binding signal was found to be 0.0284 E-score.

As to GGAGTCAC, the binding signal turned out to be 0.333 E-score.

Turning to AGCTCAGC, the binding signal is -0.279 E-score.

Turning to CTTTCGCC, the binding signal was -0.214 E-score.

With TGACTAAA, the binding signal was -0.252 E-score.

With AGACGCAG, the binding signal was 0.00415 E-score.

Consider TCGTAAAA, for which the binding signal is -0.174 E-score.

Turning to AATAGGGT, the binding signal was 0.0772 E-score.

CGAGCCTC: the binding signal was -0.171 E-score.

As to CCATTGAG, the binding signal is -0.174 E-score.

In the case of CTTCACTC, the binding signal is -0.0294 E-score.

ACGACGTA: the binding signal was -0.0132 E-score.

Consider GTTACCCA, for which the binding signal was found to be 0.0576 E-score.

CGAGACAA: the binding signal is -0.0377 E-score.

With AAACTACA, the binding signal is 0.184 E-score.

Regarding TACTCAAA, the binding signal is -0.0458 E-score.

With AGTTTGTC, the binding signal was -0.271 E-score.

Turning to CCCGCATC, the binding signal amounted to 0.0395 E-score.

Regarding ACACATTA, the binding signal is 0.034 E-score.

Regarding CAAAACTC, the binding signal was -0.0238 E-score.

Take CATGATCG: the binding signal was -0.141 E-score.

Turning to ATGTTGGG, the binding signal is -0.00551 E-score.

On to CAAGAATC, for which the binding signal is -0.0891 E-score.

With GATCCATC, the binding signal was determined as 0.00879 E-score.

On to GCCACAAC, for which the binding signal worked out at 0.144 E-score.

Consider CAGTTGCC, for which the binding signal was -0.145 E-score.

For AATTGTAT, the binding signal was -0.115 E-score.

Turning to CAAATTGG, the binding signal was -0.0497 E-score.

Consider AGCAATAG, for which the binding signal is 0.0261 E-score.

In the case of GTCGACGA, the binding signal is -0.0953 E-score.

GTAGGTAA: the binding signal was determined as 0.0856 E-score.

On to AGCGCCGG, for which the binding signal was -0.145 E-score.

Turning to AAATCGAT, the binding signal is -0.225 E-score.

Take AACCTAAC: the binding signal is -0.0407 E-score.

Consider AGCCCGCC, for which the binding signal was found to be 0.0209 E-score.

Take AACCGGGT: the binding signal came to 0.218 E-score.

For ATGTGGAG, the binding signal was 0.0441 E-score.

CGTGTGAC: the binding signal is 0.304 E-score.

For CAATATCC, the binding signal worked out at 0.0119 E-score.

Turning to CCGATTGC, the binding signal is -0.041 E-score.

For TACCGCGA, the binding signal was determined as 0.0762 E-score.

In the case of ACGTGCTA, the binding signal was 0.0141 E-score.

In the case of CCGTCTAA, the binding signal was determined as 0.149 E-score.

For the sequence ACCCAGAG, the binding signal came out at 0.0892 E-score.

On to TAAAAAAA, for which the binding signal is -0.201 E-score.

As to AAATAAAC, the binding signal is -0.196 E-score.

As for AGAAATGA, the binding signal was -0.312 E-score.

As to GAACGGGC, the binding signal was -0.144 E-score.

Consider CTCGGCCC, for which the binding signal is -0.179 E-score.

CATCGATG: the binding signal was -0.0458 E-score.
